# Source: the antibiotic and cytotoxicity screens of Wong et al. (2023)
# The other results are listed elsewhere or left out.
# Test system: HSkMC (human skeletal muscle cells)
# Experiment: cytotoxicity call (relative viability < 0.9)
# Conditions: 10 µM
row,SMILES,cytotoxicity call
1,CNC(=O)C[C@@H]1CC[C@@H]2[C@H](COC[C@H](O)CN2C(=O)Nc2cccc(OC)c2)O1,inactive
2,C[C@@H]1CN([C@@H](C)CO)S(=O)(=O)c2ccc(Br)cc2O[C@@H]1CN(C)C(=O)c1ccc(F)cc1,inactive
3,Cl.[LiH],inactive
4,CC(C)NC(=O)NCC[C@H]1CC[C@H](NC(=O)CN(C)C)[C@@H](CO)O1,inactive
5,CCC(=O)N(C)C[C@@H]1Oc2ncc(C#C[C@H](C)O)cc2C(=O)N([C@@H](C)CO)C[C@@H]1C,inactive
6,NC(=O)[C@H]1CCCNC1,inactive
7,C[C@H](CO)N1C[C@H](C)[C@@H](CN(C)C(=O)c2cc(Cl)cc(Cl)c2)OCc2ccccc2-c2ccccc2C1=O,inactive
8,C[C@@H]1CN([C@H](C)CO)C(=O)c2cccc(NC(=O)c3ccncc3)c2O[C@@H]1CN(C)S(=O)(=O)c1ccc(F)cc1,inactive
9,COCC(=O)N(C)C[C@@H]1Oc2cc(C#C[C@H](C)O)ccc2S(=O)(=O)N([C@H](C)CO)C[C@H]1C,inactive
10,COc1ccc(NC(=O)Nc2ccc3c(c2)C(=O)N([C@@H](C)CO)C[C@H](C)[C@@H](CN(C)Cc2ccc(C(=O)O)cc2)OCCCC[C@H](C)O3)cc1,inactive
11,C[C@H]1CN([C@@H](C)CO)S(=O)(=O)c2ccc(-c3cncnc3)cc2O[C@@H]1CN(C)C(=O)Cc1ccncc1,inactive
12,C[C@H](CO)N1C[C@H](C)[C@@H](CN(C)S(=O)(=O)c2ccccc2)Oc2ncc(-c3ccncc3)cc2C1=O,inactive
13,COc1ccccc1CNC(=O)C[C@@H]1C[C@@H]2c3cc(NC(=O)Nc4ccc(C(F)(F)F)cc4)ccc3O[C@@H]2[C@@H](CO)O1,inactive
14,Cc1noc(C)c1S(=O)(=O)N(C)C[C@H]1Oc2ccc(NC(=O)C3CCCCC3)cc2CC(=O)N([C@@H](C)CO)C[C@@H]1C,inactive
15,COc1ccc(CN(C)C[C@H]2Oc3c(NC(=O)c4ccc(-c5nccs5)cc4)cccc3C(=O)N([C@@H](C)CO)C[C@H]2C)cc1,inactive
16,C[C@@H](O)CNC(=O)C(=O)NC(C)(C)C,inactive
17,C[C@H](CO)N1C[C@H](C)[C@@H](CN(C)C(=O)Nc2ccccc2)Oc2ccc(NC(=O)CCCCCC(=O)Nc3ccccc3N)cc2C1=O,inactive
18,C[C@@H]1CN([C@@H](C)CO)C(=O)c2cccc(NS(C)(=O)=O)c2O[C@H]1CN(C)Cc1ccc(C(F)(F)F)cc1,inactive
19,C[C@H]1CN([C@@H](C)CO)C(=O)c2ccccc2-c2ccccc2CO[C@@H]1CN(C)C(=O)Nc1cccc(C(F)(F)F)c1,inactive
20,Cc1cc(NS(=O)(=O)c2ccc(N)cc2)no1,inactive
21,C[C@@H]1CCCCO[C@H](CN(C)C(=O)C2CCCCC2)[C@@H](C)CN([C@H](C)CO)C(=O)c2cc(NC(=O)CCC(F)(F)F)ccc2O1,inactive
22,O=C(N[C@@H]1CC=CC[C@H](CC(=O)N(CCO)Cc2ccccc2)C(=O)N[C@@H](c2ccccc2)COC1=O)OCC1c2ccccc2-c2ccccc21,inactive
23,CC(C)NC(=O)Nc1ccc2c(c1)C(=O)N([C@@H](C)CO)C[C@@H](C)[C@@H](CN(C)CC1CCCCC1)OCCCC[C@H](C)O2,inactive
24,Cc1noc(C)c1NC(=O)Nc1cccc2c1O[C@H](CN(C)S(=O)(=O)c1ccccc1)[C@H](C)CN([C@H](C)CO)C2=O,inactive
25,CO[C@H](CN(C)C(=O)Nc1ccc(C(F)(F)F)cc1)[C@H](C)CN(Cc1ccccc1Cl)[C@@H](C)CO,inactive
26,C[C@@H]1CN([C@@H](C)CO)C(=O)Cc2cc(NC(=O)Nc3ccc4c(c3)OCO4)ccc2O[C@H]1CN(C)Cc1ccc(C(=O)Nc2ccccc2N)cc1,inactive
27,CONC(=O)Nc1ccc(-c2sc3c(c2CN(C)Cc2ccccc2)c(=O)n(-c2ccccc2)c(=O)n3Cc2c(F)cccc2F)cc1,inactive

# Test system: HepG2
# Experiment: cytotoxicity call (relative viability < 0.9)
# Conditions: 10 µM
row,SMILES,cytotoxicity call
1,C[C@@H]1CN([C@@H](C)CO)C(=O)c2cc(C#CCc3ccccc3)cnc2O[C@@H]1CN(C)C(=O)Cc1cccnc1,inactive
2,Cc1ccc(S(=O)(=O)Nc2ccc3c(c2)CC(=O)N([C@H](C)CO)C[C@H](C)[C@H](CN(C)S(=O)(=O)c2cn(C)cn2)O3)cc1,inactive
3,CC(C)c1noc(CNC(=O)CN)n1,inactive
4,C[C@@H]1CN([C@@H](C)CO)C(=O)c2cccc(NC(=O)Nc3cccc4ccccc34)c2O[C@H]1CN(C)C(=O)Nc1ccc2c(c1)OCO2,inactive
5,C[C@H](CO)N1C[C@H](C)[C@@H](CN(C)S(C)(=O)=O)OCc2cn(nn2)CCCC1=O,inactive
6,C[C@@H]1CN([C@@H](C)CO)C(=O)c2cc(-c3ccc(F)cc3)cnc2O[C@H]1CN(C)C(=O)Cc1ccccn1,inactive
7,C[C@@H]1CN([C@@H](C)CO)C(=O)CCCn2nncc2CO[C@@H]1CN(C)C(=O)Nc1ccc(C(F)(F)F)cc1,inactive
8,Cc1noc(C)c1NC(=O)Nc1ccc2c(c1)CC(=O)N([C@H](C)CO)C[C@H](C)[C@@H](CN(C)S(=O)(=O)c1cccs1)O2,inactive
9,NNC(=O)[C@H]1C[C@H]2C[C@@H]1C[C@@H]2C(=O)NN,inactive
10,C[C@H](O)C#Cc1ccc2c(c1)O[C@@H](CN(C)C(=O)C1CCCCC1)[C@H](C)CN([C@@H](C)CO)S2(=O)=O,inactive
11,C[C@@H]1CN([C@@H](C)CO)C(=O)c2cc(NC(=O)Nc3cccc4ccccc34)ccc2O[C@H]1CN(C)C(=O)Nc1ccc2c(c1)OCO2,inactive
12,C[C@H](CO)N1C[C@H](C)[C@H](CN(C)Cc2ccc(Cl)c(Cl)c2)Oc2ccc(NC(=O)Cn3cnnn3)cc2CC1=O,inactive
13,CNC(=O)C[C@@H]1CC[C@@H]2[C@H](COC[C@H](O)CN2C(=O)Nc2cccc(OC)c2)O1,inactive
14,C[C@@H]1CN([C@@H](C)CO)S(=O)(=O)c2ccc(Br)cc2O[C@@H]1CN(C)C(=O)c1ccc(F)cc1,inactive
15,Cl.[LiH],inactive
16,CC(C)NC(=O)NCC[C@H]1CC[C@H](NC(=O)CN(C)C)[C@@H](CO)O1,inactive
17,CCC(=O)N(C)C[C@@H]1Oc2ncc(C#C[C@H](C)O)cc2C(=O)N([C@@H](C)CO)C[C@@H]1C,inactive
18,NC(=O)[C@H]1CCCNC1,inactive
19,C[C@H](CO)N1C[C@H](C)[C@@H](CN(C)C(=O)c2cc(Cl)cc(Cl)c2)OCc2ccccc2-c2ccccc2C1=O,inactive
20,C[C@@H]1CN([C@H](C)CO)C(=O)c2cccc(NC(=O)c3ccncc3)c2O[C@@H]1CN(C)S(=O)(=O)c1ccc(F)cc1,inactive

row,SMILES,cytotoxicity call
1,COCC(=O)N(C)C[C@@H]1Oc2cc(C#C[C@H](C)O)ccc2S(=O)(=O)N([C@H](C)CO)C[C@H]1C,inactive
2,COc1ccc(NC(=O)Nc2ccc3c(c2)C(=O)N([C@@H](C)CO)C[C@H](C)[C@@H](CN(C)Cc2ccc(C(=O)O)cc2)OCCCC[C@H](C)O3)cc1,inactive
3,C[C@H]1CN([C@@H](C)CO)S(=O)(=O)c2ccc(-c3cncnc3)cc2O[C@@H]1CN(C)C(=O)Cc1ccncc1,inactive
4,C[C@H](CO)N1C[C@H](C)[C@@H](CN(C)S(=O)(=O)c2ccccc2)Oc2ncc(-c3ccncc3)cc2C1=O,inactive
5,COc1ccccc1CNC(=O)C[C@@H]1C[C@@H]2c3cc(NC(=O)Nc4ccc(C(F)(F)F)cc4)ccc3O[C@@H]2[C@@H](CO)O1,inactive
6,Cc1noc(C)c1S(=O)(=O)N(C)C[C@H]1Oc2ccc(NC(=O)C3CCCCC3)cc2CC(=O)N([C@@H](C)CO)C[C@@H]1C,inactive
7,COc1ccc(CN(C)C[C@H]2Oc3c(NC(=O)c4ccc(-c5nccs5)cc4)cccc3C(=O)N([C@@H](C)CO)C[C@H]2C)cc1,inactive
8,C[C@@H](O)CNC(=O)C(=O)NC(C)(C)C,inactive
9,C[C@H](CO)N1C[C@H](C)[C@@H](CN(C)C(=O)Nc2ccccc2)Oc2ccc(NC(=O)CCCCCC(=O)Nc3ccccc3N)cc2C1=O,inactive
10,C[C@@H]1CN([C@@H](C)CO)C(=O)c2cccc(NS(C)(=O)=O)c2O[C@H]1CN(C)Cc1ccc(C(F)(F)F)cc1,inactive
11,C[C@H]1CN([C@@H](C)CO)C(=O)c2ccccc2-c2ccccc2CO[C@@H]1CN(C)C(=O)Nc1cccc(C(F)(F)F)c1,inactive
12,Cc1cc(NS(=O)(=O)c2ccc(N)cc2)no1,inactive
13,C[C@@H]1CCCCO[C@H](CN(C)C(=O)C2CCCCC2)[C@@H](C)CN([C@H](C)CO)C(=O)c2cc(NC(=O)CCC(F)(F)F)ccc2O1,inactive
14,O=C(N[C@@H]1CC=CC[C@H](CC(=O)N(CCO)Cc2ccccc2)C(=O)N[C@@H](c2ccccc2)COC1=O)OCC1c2ccccc2-c2ccccc21,inactive
15,CC(C)NC(=O)Nc1ccc2c(c1)C(=O)N([C@@H](C)CO)C[C@@H](C)[C@@H](CN(C)CC1CCCCC1)OCCCC[C@H](C)O2,inactive
16,Cc1noc(C)c1NC(=O)Nc1cccc2c1O[C@H](CN(C)S(=O)(=O)c1ccccc1)[C@H](C)CN([C@H](C)CO)C2=O,inactive
17,CO[C@H](CN(C)C(=O)Nc1ccc(C(F)(F)F)cc1)[C@H](C)CN(Cc1ccccc1Cl)[C@@H](C)CO,inactive
18,C[C@@H]1CN([C@@H](C)CO)C(=O)Cc2cc(NC(=O)Nc3ccc4c(c3)OCO4)ccc2O[C@H]1CN(C)Cc1ccc(C(=O)Nc2ccccc2N)cc1,inactive
19,CONC(=O)Nc1ccc(-c2sc3c(c2CN(C)Cc2ccccc2)c(=O)n(-c2ccccc2)c(=O)n3Cc2c(F)cccc2F)cc1,inactive
